Article PMC4336329 (PLoS ONE, 2015)
Out of some 310,000 compounds screened, about 2,200 (0.71%) showed an effect of 50% or more. Effects have a minus sign here. This is one part of the list.

target: human ether-à-go-go-related gene (hERG) potassium channel (human, UniProt Q12809); test: primary screen, population patch clamp on CHO cells stably expressing hERG
Sequence (Q12809 whole entry, looked up): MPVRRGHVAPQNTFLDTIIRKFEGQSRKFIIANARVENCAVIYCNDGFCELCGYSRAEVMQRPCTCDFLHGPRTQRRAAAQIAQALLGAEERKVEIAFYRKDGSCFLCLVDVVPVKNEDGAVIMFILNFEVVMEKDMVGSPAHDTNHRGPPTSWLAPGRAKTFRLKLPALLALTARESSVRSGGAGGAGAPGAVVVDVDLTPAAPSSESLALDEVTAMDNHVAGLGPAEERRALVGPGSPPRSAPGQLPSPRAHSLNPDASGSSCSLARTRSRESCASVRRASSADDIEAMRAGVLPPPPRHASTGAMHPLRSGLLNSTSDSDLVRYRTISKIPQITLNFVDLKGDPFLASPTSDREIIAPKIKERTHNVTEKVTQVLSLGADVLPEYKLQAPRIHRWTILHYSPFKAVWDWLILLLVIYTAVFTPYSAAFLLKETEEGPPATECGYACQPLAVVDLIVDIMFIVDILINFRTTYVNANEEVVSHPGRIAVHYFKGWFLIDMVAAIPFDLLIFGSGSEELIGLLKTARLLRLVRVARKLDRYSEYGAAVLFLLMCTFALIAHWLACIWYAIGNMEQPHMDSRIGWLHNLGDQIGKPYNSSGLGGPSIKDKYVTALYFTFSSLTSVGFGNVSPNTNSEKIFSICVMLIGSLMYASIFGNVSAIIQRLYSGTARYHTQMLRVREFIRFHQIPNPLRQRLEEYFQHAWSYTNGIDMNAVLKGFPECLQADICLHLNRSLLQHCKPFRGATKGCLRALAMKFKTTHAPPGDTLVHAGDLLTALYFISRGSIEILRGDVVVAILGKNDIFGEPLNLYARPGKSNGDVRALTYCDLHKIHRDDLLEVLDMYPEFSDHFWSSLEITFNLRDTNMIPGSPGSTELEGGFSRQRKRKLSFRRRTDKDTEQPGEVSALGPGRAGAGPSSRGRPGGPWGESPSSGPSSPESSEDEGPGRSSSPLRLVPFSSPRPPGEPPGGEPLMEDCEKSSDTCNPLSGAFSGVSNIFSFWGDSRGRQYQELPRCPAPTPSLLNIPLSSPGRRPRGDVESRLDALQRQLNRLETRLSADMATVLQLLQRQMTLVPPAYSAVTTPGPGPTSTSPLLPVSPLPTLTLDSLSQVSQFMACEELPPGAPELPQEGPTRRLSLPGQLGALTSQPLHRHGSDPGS

**Q.** Which “hERG current change (%, negative = inhibition) at 1uM” value does the source give for O=C(Nc1ccc(Cl)c(Cl)c1)C1=Cc2ccccc2OC1 here?
**A.** 14%

**Q.** NNC(=O)c1ccc(COc2ccc3ccccc3c2)o1 was tested. Which “hERG current change (%, negative = inhibition) at 1uM” value did it give?
**A.** 17.8%

**Q.** C=CCNC(=O)c1ccc2c(c1)N(CC)C(=O)c1ccccc1S2 was tested. Which “hERG current change (%, negative = inhibition) at 1uM” value did it give?
**A.** 9.08%

**Q.** How did the “hERG current change (%, negative = inhibition) at 1uM” value turn out when NC(=O)COC(=O)c1ccc(-c2ccc(O)cc2)cc1 was run?
**A.** 3.18%

**Q.** With CC(NC(=O)CCc1nnc(-c2ccccc2)o1)c1ccccc1 (stereo not drawn) as the compound, how does the “hERG current change (%, negative = inhibition) at 1uM” value read?
**A.** 13.8%

**Q.** For CCOc1ccc(N(CC(=O)N/N=C/c2ccc(OC(C)C)cc2)S(C)(=O)=O)cc1, which “hERG current change (%, negative = inhibition) at 1uM” value is on record?
**A.** 14.9%

**Q.** With CCC(=O)C1CCCN(C(=O)c2cccc(OC3CCN(S(C)(=O)=O)CC3)c2)C1 (stereo not drawn) as the compound, how does the “hERG current change (%, negative = inhibition) at 1uM” value read?
**A.** 18.4%

**Q.** How did the “hERG current change (%, negative = inhibition) at 1uM” value turn out when Cc1cc(C)c2nc(NNC(=O)c3ccc(S(=O)(=O)N4CC(C)CC(C)C4)cc3)sc2c1 (stereo not drawn) was run?
**A.** 13.2%

**Q.** CCCCN(c1ccccc1)S(=O)(=O)N(C)C was tested. Which “hERG current change (%, negative = inhibition) at 1uM” value did it give?
**A.** 10.7%

**Q.** Which “hERG current change (%, negative = inhibition) at 1uM” value does the source give for Cc1c(OC(C)C(=O)NCC2CCC(C(=O)O)CC2)ccc2c(-c3ccccc3)cc(=O)oc12 (stereo not drawn) here?
**A.** 13.9%

**Q.** Which “hERG current change (%, negative = inhibition) at 1uM” value does the source give for CCCOC(=O)c1ccc(-n2nnnc2SCC(=O)N2CCCCC2)cc1 here?
**A.** 5%

**Q.** CC(C)C(=O)NCCn1ccc2ccccc21 was tested. Which “hERG current change (%, negative = inhibition) at 1uM” value did it give?
**A.** -0.544%

**Q.** How did the “hERG current change (%, negative = inhibition) at 1uM” value turn out when CC(C)(C)c1ccccc1NC(=S)NCc1ccccc1 was run?
**A.** 9.94%

**Q.** For CCNc1nc(OC)nc(N2CCC(Cc3ccccc3)CC2)n1, which “hERG current change (%, negative = inhibition) at 1uM” value is on record?
**A.** 8.94%

**Q.** How did the “hERG current change (%, negative = inhibition) at 1uM” value turn out when Cc1cc(C)cc(C(=O)NC(CC(N)=O)c2ccc(NC3CCCCCCC3)c([N+](=O)[O-])c2)c1 (stereo not drawn) was run?
**A.** 1.08%

**Q.** Which “hERG current change (%, negative = inhibition) at 1uM” value does the source give for CCC(=O)N(CCC(c1ccccc1)c1ccco1)Cc1cccs1 (stereo not drawn) here?
**A.** 1.53%

**Q.** Which “hERG current change (%, negative = inhibition) at 1uM” value does the source give for O=S(=O)(Cc1cc(NCc2ccccc2)nc(-c2ccncc2)n1)c1ccccc1 here?
**A.** 15.3%

**Q.** With Cn1ccnc1Sc1nc(Nc2cccc(Cl)c2)nc(N2CCOCC2)n1 as the compound, how does the “hERG current change (%, negative = inhibition) at 1uM” value read?
**A.** -11.7%

**Q.** Cc1ccccc1C(=O)N1CCC(C(=O)Nc2ccc3c(c2)OCO3)CC1 was tested. Which “hERG current change (%, negative = inhibition) at 1uM” value did it give?
**A.** 7.7%

**Q.** With COc1ccc(Nc2cc(C)nc(N3CCOCC3)n2)cc1 as the compound, how does the “hERG current change (%, negative = inhibition) at 1uM” value read?
**A.** 1.79%

**Q.** With CCN(CC)CCOC(=O)c1ccc(NC(=O)CCCN2C(=O)/C(=C\c3cccs3)SC2=S)cc1 as the compound, how does the “hERG current change (%, negative = inhibition) at 1uM” value read?
**A.** 7.28%

**Q.** CCN(CC)C(=O)CSC1=C(C#N)C(c2cccs2)C=C(C)N1 (stereo not drawn) was tested. Which “hERG current change (%, negative = inhibition) at 1uM” value did it give?
**A.** 12%

**Q.** Cc1ccc(C)c(N2CCN(C(=O)CCNC(=O)Cn3ccc4ccccc4c3=O)CC2)c1 was tested. Which “hERG current change (%, negative = inhibition) at 1uM” value did it give?
**A.** 12.5%

**Q.** For CCOC(=O)CSc1nc2c([nH]c3ccccc32)c(=O)n1C, which “hERG current change (%, negative = inhibition) at 1uM” value is on record?
**A.** 16%

**Q.** How did the “hERG current change (%, negative = inhibition) at 1uM” value turn out when CCOC(=O)c1cnc2c(OC)cccc2c1NCc1cccnc1 was run?
**A.** -68.1%

**Q.** How did the “hERG current change (%, negative = inhibition) at 1uM” value turn out when COc1ccc(-c2ccc(SCC(=O)N3CCCC3)nn2)cc1OC was run?
**A.** -2.21%

**Q.** CC(C)CNC(=O)COC(=O)c1cc(S(=O)(=O)N2CCCCC2)ccc1N1CCOCC1 was tested. Which “hERG current change (%, negative = inhibition) at 1uM” value did it give?
**A.** -8.88%

**Q.** How did the “hERG current change (%, negative = inhibition) at 1uM” value turn out when Cc1cc(C)c(C)c(S(=O)(=O)N2CCN(C(=O)C3CSC4(C)CCC(=O)N34)CC2)c1C (stereo not drawn) was run?
**A.** 14.2%

**Q.** How did the “hERG current change (%, negative = inhibition) at 1uM” value turn out when COc1ccc(CNC(=O)Cn2cc([N+](=O)[O-])nc2C)cc1 was run?
**A.** 11.8%

**Q.** With CCOC(=O)c1c(NC(=O)c2cc(C)oc2C)sc(C(=O)Nc2ccc(Cl)cc2)c1C as the compound, how does the “hERG current change (%, negative = inhibition) at 1uM” value read?
**A.** 18.1%

**Q.** For CCS(=O)(=O)c1nc(S(=O)(=O)c2ccc(Cl)cc2)c(N2CCOCC2)s1, which “hERG current change (%, negative = inhibition) at 1uM” value is on record?
**A.** 17.1%

**Q.** With O=C(NCC1OCCc2ccccc21)c1cc(COc2ccc(F)cc2Cl)on1 (stereo not drawn) as the compound, how does the “hERG current change (%, negative = inhibition) at 1uM” value read?
**A.** 6.87%

**Q.** Which “hERG current change (%, negative = inhibition) at 1uM” value does the source give for Cc1cccc(C)c1NC(=O)C(c1ccc(Cl)cc1Cl)N1CCCCC1 (stereo not drawn) here?
**A.** 11.5%

**Q.** With Cc1c(C(=O)N2CCC(C(N)=O)CC2)sc(N)c1C#N as the compound, how does the “hERG current change (%, negative = inhibition) at 1uM” value read?
**A.** 8%

**Q.** How did the “hERG current change (%, negative = inhibition) at 1uM” value turn out when Cc1ccc(CCN2CC(C(=O)NC(C)C)CC2=O)cc1 (stereo not drawn) was run?
**A.** 14.9%

**Q.** O=C(Nc1ccccc1N1CCCC1)c1cccc(Cl)c1Cl was tested. Which “hERG current change (%, negative = inhibition) at 1uM” value did it give?
**A.** 10.3%

**Q.** O=C(c1ccc(F)cc1)N1CCN(Cc2ccccc2Br)CC1 was tested. Which “hERG current change (%, negative = inhibition) at 1uM” value did it give?
**A.** 5.9%

**Q.** How did the “hERG current change (%, negative = inhibition) at 1uM” value turn out when O=C(CCc1nc2ccccc2[nH]1)NC1CCCCC1 was run?
**A.** 12.8%

**Q.** Which “hERG current change (%, negative = inhibition) at 1uM” value does the source give for CC(C)c1ccc(NC(=O)CSc2nnc(-c3ccccn3)n2C)cc1 here?
**A.** -4.65%

**Q.** For CC(=O)N1CC2(C)CN(C(C)=O)CC(C)(C1)C2, which “hERG current change (%, negative = inhibition) at 1uM” value is on record?
**A.** 23.7%

**Q.** For CCCC(=O)Nc1ccc(C(=O)N/N=C/c2ccc[nH]2)cc1, which “hERG current change (%, negative = inhibition) at 1uM” value is on record?
**A.** 15.7%

**Q.** How did the “hERG current change (%, negative = inhibition) at 1uM” value turn out when COc1ccc(C2(CNC(=O)C(=O)Nc3ccc(C)cc3)CCOCC2)cc1 was run?
**A.** 13.4%

**Q.** How did the “hERG current change (%, negative = inhibition) at 1uM” value turn out when CC(C)(C)OC(=O)[C@H](Cc1ccccc1)NC(=O)c1nc[nH]c1C(=O)N1CCN(c2ccccc2)CC1 was run?
**A.** 9.51%

**Q.** O=C(NCc1cccnc1)c1cc(C(=O)C2CC2)c[nH]1 was tested. Which “hERG current change (%, negative = inhibition) at 1uM” value did it give?
**A.** 10.7%

**Q.** For CCOC(=O)CN1C(=O)C(Sc2n[nH]c(-c3ccc(C)cc3)n2)CCc2ccccc21 (stereo not drawn), which “hERG current change (%, negative = inhibition) at 1uM” value is on record?
**A.** 5.54%

**Q.** How did the “hERG current change (%, negative = inhibition) at 1uM” value turn out when COc1ccc(NC(=O)CCN2CCN(S(=O)(=O)c3ccc(Cl)cc3)CC2)cc1 was run?
**A.** 2.03%

**Q.** With COc1cc(N2CCCC2)c(OC)cc1C=O as the compound, how does the “hERG current change (%, negative = inhibition) at 1uM” value read?
**A.** 13.2%

**Q.** Which “hERG current change (%, negative = inhibition) at 1uM” value does the source give for O=C(OCc1cnc(Cl)s1)c1ccc(Cl)cc1 here?
**A.** 2.91%

**Q.** For Cc1[nH]n(-c2ccccc2)c(=O)c1N=Nc1cccc([N+](=O)[O-])c1, which “hERG current change (%, negative = inhibition) at 1uM” value is on record?
**A.** 4.2%

**Q.** For O=C1Nc2cc(Cl)c(Cl)cc2N(O)N1c1ccc(Cl)c(Cl)c1, which “hERG current change (%, negative = inhibition) at 1uM” value is on record?
**A.** -8.17%

**Q.** CC(=O)N1CCN(S(=O)(=O)c2cccc(C(=O)Nc3ccc4c(c3)CCC4)c2)CC1 was tested. Which “hERG current change (%, negative = inhibition) at 1uM” value did it give?
**A.** -4.54%

**Q.** Which “hERG current change (%, negative = inhibition) at 1uM” value does the source give for COc1ccccc1N(CC(=O)N(C)Cc1ccccc1)S(=O)(=O)c1cccs1 here?
**A.** 11.2%

**Q.** With CCc1cc(C)c(O)c(CC)n1 as the compound, how does the “hERG current change (%, negative = inhibition) at 1uM” value read?
**A.** -9.13%

**Q.** How did the “hERG current change (%, negative = inhibition) at 1uM” value turn out when COc1ccc(S(=O)(=O)N(C)C)cc1NCC(=O)Nc1ccc(Br)cc1F was run?
**A.** -8%

**Q.** How did the “hERG current change (%, negative = inhibition) at 1uM” value turn out when Clc1cccc(CN2COc3c(cc(Cl)c4cccnc34)C2)c1 was run?
**A.** 12.7%

**Q.** With CSCCC(NC(N)=O)C(=O)NCc1cccc(Cl)c1 (stereo not drawn) as the compound, how does the “hERG current change (%, negative = inhibition) at 1uM” value read?
**A.** 7.67%

**Q.** Which “hERG current change (%, negative = inhibition) at 1uM” value does the source give for O=C(c1ccc(CS(=O)c2ccccc2Cl)o1)N1CCN(c2ccccc2)CC1 (stereo not drawn) here?
**A.** -19.4%
